Results as given in patent US6800434B2, “Peptides as NS3-serine protease inhibitors of hepatitis C virus” (priority 2000, dated 2004).
pKi: −log10 of the molar value. Starred links: 1 amine or outer side, 2 acyl side, 3 side chain; linkers in the order of their positions; H or OH if unused. Non-standard residues stand in square brackets, D forms with d. Residues, ends and D or L forms follow the SMILES beside them. ξ: configuration not given here. *: point of attachment. X27 = CC(C)(C)[Si](C)(C)O[C@@H]1C[C@@H](C(=O)[*:2])N([*:1])C1; Pro(trans-4-NH2) = O=C([C@@H]1C[C@@H](N[*:3])CN1[*:1])[*:2]; X7 = COc1ccc(C(=O)N[C@@H]2C[C@@H](C(=O)[*:2])N([*:1])C2)cc1; X20 = O=C(Nc1ccccc1)N[C@@H]1C[C@@H](C(=O)[*:2])N([*:1])C1; Pro(trans-4-Ph) = O=C(O)[C@@H]1C[C@@H](c2ccccc2)CN1; X12 = O=C(O)C[C@@H]1C[C@@H](C(=O)[*:2])N([*:1])C1; Pro(4,4-SCH2CH2S) = O=C(O)[C@@H]1CC2(CN1)SCCS2; Benzoyl(3-OPh) = O=C(c1cccc(Oc2ccccc2)c1)*; Oic = O=C(O)[C@@H]1C[C@@H]2CCCC[C@@H]2N1; X36 = CC(=O)CC[C@H](N[*:1])C(=O)[*:2]; X1 = CCC[C@H](N[*:1])C(=O)C(=O)[*:2]; X3 = CCCC(N[*:1])C(=O)C(=O)[*:2]; Thr(3ξ) = CC(O)[C@H](N)C(=O)O; X29 = CCC[C@H](N*)C(=O)C(=O)O; Chg = N[CH](C(=O)O)C1CCCCC1; Tle = CC(C)(C)[C@H](N)C(=O)O; ξChg = NC(C(=O)O)C1CCCCC1; ξPhg = NC(C(=O)O)c1ccccc1; Carboxymethyl = O=C(O)C*; ξE = NC(CCC(=O)O)C(=O)O; ξV = CC(C)C(N)C(=O)O; Bn = c1ccc(C*)cc1; GABA = NCCCC(=O)O; OtBu = CC(C)(C)O*; NHAllyl = C=CCN*; X18 = C=CCN(C)*; OAll = C=CCO*; OPr = CCCO*

The molecules below were run against Recombinant heterodimeric HCV NS3/NS4A protease (strain 1a) (Hepatitis C virus genotype 1a, UniProt P27958) (assay: biochemical). Details: Ki* Range.

| SMILES | pKi |
| --- | --- |
| C=CCOC(=O)CNC(=O)C(=O)[C@H](CCC)NC(=O)[C@@H]1CCCN1C(=O)[C@@H](NC(=O)[C@@H](NC(=O)[C@H](CCC(=O)O)NC(=O)[C@H](CCC(=O)O)NC(C)=O)C(C)C)C(C)C [Ac-EEVVP-nV-(CO)-G-Oallyl, Ac-Glu-Glu-Val-Val-Pro-nVal(CO)-Gly-Oallyl] (Ac-EEVVP[X1]G-OAll) | 7.00 to 9.00 |
| CCC[C@H](NC(=O)[C@@H]1C[C@@H](NC(=O)c2ccc(OC)cc2)CN1C(=O)[C@@H](NC(=O)[C@@H](NC(=O)[C@H](CCC(=O)O)NC(=O)[C@H](CCC(=O)O)NC(C)=O)C(C)C)C(C)C)C(=O)C(=O)NCC(=O)O [Ac-EEVV-P(4t-NHBzl(4-OMe))-nV-(CO)-G-OH] (Ac-EEVV[X7][X1]G-OH) | 7.00 to 9.00 |
| CCC[C@H](NC(=O)[C@@H]1CCCN1C(=O)[C@@H](NC(=O)[C@@H](NC(=O)[C@H](CCC(=O)O)NC(=O)[C@H](CCC(=O)O)NC(C)=O)C(C)C)C(C)C)C(=O)C(=O)N[C@@H](COCc1ccccc1)C(=O)NC [Compound 23] (Ac-EEVVP[X1]S(Bn)-NHMe) | 5.00 to 6.00 |
| CCCC(NC(=O)[C@@H]1CC2(CN1C(=O)C(NC(=O)C(NC(=O)C(CCC(=O)O)NC(=O)C(CCC(=O)O)NC(C)=O)C(C)C)C1CCCCC1)SCCS2)C(=O)C(=O)NCC(=O)NC(C(N)=O)c1ccccc1 (stereo partly shown) [Compound 87] (Ac-[ξE][ξE][ξV][ξChg][Pro(4,4-SCH2CH2S)][X3]G[ξPhg]-NH2) | 7.00 to 9.00 |
| CCC[C@H](NC(=O)[C@@H]1CCCN1C(=O)[C@@H](NC(=O)[C@@H](NC(=O)[C@H](CCC(=O)O)NC(=O)[C@H](CCC(=O)O)NC(C)=O)C(C)C)C(C)C)C(=O)C(=O)O [Ac-EEVVP-nV-(CO)-OH, Ac-Glu-Glu-Val-Val-Pro-nVal(CO)-Carboxylic Acid] (Ac-EEVVP-X29) | 5.00 to 6.00 |
| CCC[C@H](NC(=O)[C@@H]1CCCN1C(=O)[C@@H](NC(=O)[C@@H](NC(=O)[C@H](CCC(=O)O)NC(=O)[C@H](CCC(=O)O)NC(C)=O)C(C)C)C(C)C)C(=O)C(=O)NCCCC(=O)OCC [Compound 17] (Ac-EEVVP[X1][GABA]-OEt) | 5.00 to 6.00 |
| CCC[C@H](NC(=O)[C@@H]1CCCN1C(=O)[C@@H](NC(=O)[C@@H](NC(=O)[C@H](CCC(=O)O)NC(=O)[C@H](CCC(=O)O)NC(C)=O)C(C)C)C1CCCCC1)C(=O)C(=O)NCC(=O)O [Ac-EEV-G(Chx)-P-nV-(CO)-G-OH] (Ac-EEV[Chg]P[X1]G-OH) | 7.00 to 9.00 |
| CCC[C@H](NC(=O)[C@@H]1CCCN1C(=O)[C@@H](NC(=O)[C@@H](NC(=O)[C@H](CCC(=O)O)NC(=O)[C@H](CCC(=O)O)NC(C)=O)C(C)C)C(C)(C)C)C(=O)C(=O)NCC(=O)O [Ac-EEVG(t-Bu)P-nV-(CO)-G-OH] (Ac-EEV[Tle]P[X1]G-OH) | 7.00 to 9.00 |
| CCC[C@H](NC(=O)[C@@H]1CCCN1C(=O)[C@H](Cc1ccccc1)NC(=O)[C@@H](NC(=O)[C@H](CCC(=O)O)NC(=O)[C@H](CCC(=O)O)NC(C)=O)C(C)C)C(=O)C(=O)NCC(=O)O [Ac-EEVFP-nV-(CO)-G-OH] (Ac-EEVFP[X1]G-OH) | 6.00 to 7.00 |
| CCC[C@H](NC(=O)[C@@H]1C[C@@H](NC(=O)c2cccc(Oc3ccccc3)c2)CN1C(=O)[C@@H](NC(=O)[C@@H](NC(=O)[C@H](CCC(=O)O)NC(=O)[C@H](CCC(=O)O)NC(C)=O)C(C)C)C(C)C)C(=O)C(=O)NCC(=O)O [Ac-EEVV-P(4t-NHBzl(3-OPh))-nV-(CO)-G-OH] (Ac-EEVV[Pro(trans-4-NH2)](Benzoyl(3-OPh))[X1]G-OH) | 7.00 to 9.00 |
| CCC[C@H](NC(=O)[C@H](Cc1ccccc1)NC(=O)[C@@H](NC(=O)[C@@H](NC(=O)[C@H](CCC(=O)O)NC(=O)[C@H](CCC(=O)O)NC(C)=O)C(C)C)C(C)C)C(=O)C(=O)NCC(=O)O [Ac-EEVVF-nV-(CO)-G-OH] (Ac-EEVVF[X1]G-OH) | 7.00 to 9.00 |
| CCCOC(=O)CNC(=O)C(=O)[C@H](CCC)NC(=O)[C@@H]1C[C@@H](c2ccccc2)CN1C(=O)[C@@H](NC(=O)[C@@H](NC(=O)[C@H](CCC(C)=O)NC(=O)[C@H](CCC(=O)O)NC(C)=O)C(C)C)C1CCCCC1 [Compound 83] (Ac-E[X36]V[Chg][Pro(trans-4-Ph)][X1]G-OPr) | 7.00 to 9.00 |
| C=CCNC(=O)CNC(=O)C(=O)[C@H](CCC)NC(=O)[C@@H]1CCCN1C(=O)[C@@H](NC(=O)[C@@H](NC(=O)[C@H](CCC(=O)OC(C)(C)C)NC(=O)[C@H](CCC(=O)OC(C)(C)C)NC(C)=O)C(C)C)C(C)C [Compound 7] (Ac-E(OtBu)E(OtBu)VVP[X1]G-NHAllyl) | 5.00 to 6.00 |
| CCC[C@H](NC(=O)[C@@H]1C[C@@H](CC(=O)O)CN1C(=O)[C@@H](NC(=O)[C@@H](NC(=O)[C@H](CCC(=O)O)NC(=O)[C@H](CCC(=O)O)NC(C)=O)C(C)C)C(C)C)C(=O)C(=O)NCC(=O)O [Ac-EEVV-P(4t-AcOH)-nV-(CO)-G-OH] (Ac-EEVV[X12][X1]G-OH) | 7.00 to 9.00 |
| CCC[C@H](NC(=O)[C@@H]1CCCN1C(=O)[C@@H](NC(=O)[C@@H](NC(=O)[C@H](CCC(=O)O)NC(=O)[C@H](CCC(=O)O)NC(C)=O)C(C)C)C(C)C)C(=O)C(=O)N[C@@H](CO)C(=O)O [Compound 28] (Ac-EEVVP[X1]S-OH) | 5.00 to 6.00 |
| C=CCOC(=O)CNC(=O)C(=O)C(CCC)NC(=O)[C@@H]1C[C@@H]2CCCC[C@@H]2N1C(=O)[C@@H](NC(=O)[C@@H](NC(=O)[C@H](CCC(=O)OC(C)(C)C)NC(=O)[C@H](CCC(=O)OC(C)(C)C)NC(C)=O)C(C)C)C1CCCCC1 (stereo partly shown) [Compound 58] (Ac-E(OtBu)E(OtBu)V[Chg][Oic][X3]G-OAll) | 5.00 to 6.00 |
| C=CCN(C)C(=O)C(=O)C(CCC)NC(=O)[C@@H]1CCCN1C(=O)[C@@H](NC(=O)[C@@H](NC(=O)[C@H](CCC(=O)O)NC(=O)[C@H](CCC(=O)O)NC(C)=O)C(C)C)C(C)C (stereo partly shown) [Compound 10] (Ac-EEVVP[X3]-X18) | 5.00 to 6.00 |
| CCC[C@H](NC(=O)[C@H](CSCC(=O)O)NC(=O)[C@@H](NC(=O)[C@@H](NC(=O)[C@H](CCC(=O)O)NC(=O)[C@H](CCC(=O)O)NC(C)=O)C(C)C)C(C)C)C(=O)C(=O)NCC(=O)O [Ac-EEVV-C(2-AcOH)-nV-(CO)-G-OH] (Ac-EEVVC(Carboxymethyl)[X1]G-OH) | 7.00 to 9.00 |
| CCC[C@H](NC(=O)[C@@H]1CCCN1C(=O)[C@@H](NC(=O)[C@@H](NC(=O)[C@H](CCC(=O)O)NC(=O)[C@H](CCC(=O)O)NC(C)=O)C(C)C)C(C)O)C(=O)C(=O)NCC(=O)O (stereo partly shown) [Ac-EEVTP-nV-(CO)-G-OH] (Ac-EEV[Thr(3ξ)]P[X1]G-OH) | 5.00 to 6.00 |
| C=CCNC(=O)C(=O)C(CCC)NC(=O)C1CCCN1C(=O)C(NC(=O)C(NC(=O)C(CCC(=O)OC(C)(C)C)NC(=O)C(CCC(=O)OC(C)(C)C)NC(C)=O)C(C)C)C1CCCCC1 (stereo not shown) [Compound 35] (Ac-E(OtBu)E(OtBu)V[Chg]P[X3]-NHAllyl; configuration not given here) | 5.00 to 6.00 |
| CCC[C@H](NC(=O)[C@@H]1C[C@@H](NC(=O)Nc2ccccc2)CN1C(=O)[C@@H](NC(=O)[C@@H](NC(=O)[C@H](CCC(=O)O)NC(=O)[C@H](CCC(=O)O)NC(C)=O)C(C)C)C(C)C)C(=O)C(=O)NCC(=O)O [Ac-EEVV-P(4t-UreaPh)-nV-(CO)-G-OH] (Ac-EEVV[X20][X1]G-OH) | 7.00 to 9.00 |

Same assay, conditions: Table 1, HCV protease continuous assay; read-out: Ki* Range

| SMILES | pKi |
| --- | --- |
| C=CCOC(=O)CNC(=O)C(=O)C(CCC)NC(=O)[C@@H]1C[C@@H](O[Si](C)(C)C(C)(C)C)CN1C(=O)[C@@H](NC(=O)[C@@H](NC(=O)[C@H](CCC(=O)OC(C)(C)C)NC(=O)[C@H](CCC(=O)OC(C)(C)C)NC(C)=O)C(C)C)C(C)C (stereo partly shown) [Compound 41] (Ac-E(OtBu)E(OtBu)VV[X27][X3]G-OAll) | 5.00 to 6.00 |
